Experimental data published in PubChem BioAssay AID504466 (National Center for Advancing Translational Sciences (NCATS), 2011).
The whole screen tested about 330,000 compounds, of which about 4,200 (1.3%) were called active. This list was built around the results that the source calls inconclusive (neither active nor inactive); the mix of calls is not that of the screen. Calls come from the whole dose curve; as a rule, active = well fitted activation curve with a large enough effect; inconclusive = small, poorly fitted or top-dose-only effect; inactive = no such curve, though single readings can be large or run the other way. Potencies of inconclusive entries are doubtful fits and often do not repeat.

Assay: qHTS screen for small molecules that induce genotoxicity in human embryonic kidney (HEK293T) cells expressing luciferase-tagged ELG1; note: nearly all actives have a fitted effect of over 60% in size; for activity change, positive = activation: % of control where 0% means no effect
Conditions: HEK293T ELG1-luciferase reporter, luminescence, 16 h; series mostly up to 46 µM; activity change, positive = activation: at the top concentration
How it was run: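 Step 1: seed 2,000 HEK293T ELG1-luciferase cells per well. Step 2: add compound or DMSO, incubate 16 hr at 37 °C. Step 3: ONE-Glo, 30 min at room temperature, read luminescence.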
Potency is the fitted concentration of half-maximal effect; tags give direction and shape of the fitted curve.

Q: With CC(C)(C)c1ccc(OCC(=O)N2CCCCCC2)c(Br)c1 as the compound, how does the Potency read?
A: inconclusive: 29.1 µM [activator, single point]

Q: Which Potency does the source give for O=C(O)c1ccc(N/N=C/c2ccc(OC(=O)c3ccccc3Cl)cc2)cc1 here?
A: inconclusive: 1.16 µM [activator, partial curve, poor fit]

Q: With Cc1ccc(NC(=O)CSCC(=O)NCCc2ccccc2)c(C)c1 as the compound, how does the “activity change, positive = activation” value read?
A: inactive: 1.85%

Q: With CCCCNC(=O)c1onc(CS(=O)(=O)c2ccccn2)c1C(=O)NCCCC as the compound, how does the “activity change, positive = activation” value read?
A: inactive: -1.04%

Q: Which Potency does the source give for CC(C)n1c(/C=C/c2ccccc2)nc2ccccc21 here?
A: inconclusive: 25.9 µM [activator, partial curve, poor fit]

Q: With CN(C)/N=C/c1ccc(OS(=O)(=O)c2ccccc2)cc1 as the compound, how does the Potency read?
A: active: 8.2 µM

Q: With O=C(NCCCSc1ccccc1)c1cc(Cl)ccc1O as the compound, how does the Potency read?
A: inconclusive: 20.6 µM [activator, partial curve, poor fit]

Q: Which Potency does the source give for COc1ccc(-c2nc(C#N)c(NCc3ccco3)o2)cc1 here?
A: inconclusive: 18.3 µM [activator, partial curve, poor fit]

Q: With O=C(Nc1cccc(O)c1)c1ccc(NC(=O)C2CCCO2)cc1 (centres undefined) as the compound, how does the Potency read?
A: inconclusive: 10 µM [activator, partial curve]

Q: Which Potency does the source give for N#CC1=C(N)OC2=C(CCc3ccccc32)C1c1ccccc1 (centres undefined) here?
A: inconclusive: 6.51 µM [activator, partial curve, poor fit]

Q: With COc1ccc2nc(SCC(=O)Nc3cc(C)on3)c(C#N)cc2c1 as the compound, how does the Potency read?
A: inconclusive: 11.6 µM [activator, partial curve]

Q: Which Potency does the source give for CCCCOc1ccc(-c2cnc3ccccc3n2)cc1 here?
A: inconclusive: 1.16 µM [activator, partial curve]

Q: With O=C(NC1CCCCC1)c1cc(-c2ccc(Cl)cc2)on1 as the compound, how does the “activity change, positive = activation” value read?
A: inactive: 7.66%

Q: With COc1ccc(/C=N/NC(=O)c2cccc([N+](=O)[O-])c2)cc1OC(=O)c1ccccc1 as the compound, how does the Potency read?
A: inconclusive: 28.2 µM [activator, single point]

Q: For O=C(/C=C/c1ccccc1[N+](=O)[O-])Oc1ccccc1, which “activity change, positive = activation” value is on record?
A: inactive: 0.0415%

Q: Which Potency does the source give for COc1ccc(NC(=O)COc2cc(C)cc(C)c2)cc1S(=O)(=O)N1CCCCC1 here?
A: inconclusive: 29.1 µM [activator, single point]

Q: For CS(=O)(=O)N1CCc2cc(S(=O)(=O)Nc3ccc4c(c3)OCCO4)ccc21, which Potency is on record?
A: inconclusive: 23.1 µM [activator, partial curve, poor fit]

Q: With CC(C)NC(=O)CCCOc1ccc(Cl)cc1Cl as the compound, how does the Potency read?
A: inconclusive: 29.1 µM [activator, partial curve, poor fit]

Q: Which “activity change, positive = activation” value does the source give for Cc1ccc(NC(=O)Nc2cccc(Cl)c2)c(C(=O)O)c1 here?
A: inactive: 8.41%

Q: Which “activity change, positive = activation” value does the source give for CCCCN(C)C(=O)c1nc2ccccn2c1CN(C)Cc1csc(C)n1 here?
A: inactive: 3.08%

Q: Which Potency does the source give for CCSc1nnc(NC(=O)c2ccc3ccccc3n2)s1 here?
A: inconclusive: 5.17 µM [activator, partial curve, poor fit]

Q: For O=c1c2[nH]cnc2n(-c2ccccc2)c(=O)n1Cc1ccccc1, which Potency is on record?
A: inconclusive: 20.6 µM [activator, single point]

Q: Which Potency does the source give for Cc1noc(C)c1COC(=O)c1cc(C)n(-c2ccccc2)c1C here?
A: inconclusive: 20.6 µM [activator, partial curve, poor fit]

Q: With Cn1c(SCc2ccccc2F)nnc1-c1cnccn1 as the compound, how does the Potency read?
A: inconclusive: 25.9 µM [activator, single point]

Q: With CC1CCCC(NC(=O)c2ccc3c(c2)OCCO3)C1C (centres undefined) as the compound, how does the Potency read?
A: inconclusive: 10.3 µM [activator, partial curve]

Q: With Cc1cc(C)c2c(=O)n(-c3ccccc3)[nH]c2n1 as the compound, how does the Potency read?
A: inconclusive: 23.1 µM [activator, partial curve, poor fit]

Q: With O=C(CN1C(=O)NC2(CCCCC2)C1=O)Nc1cccc2ncccc12 as the compound, how does the “activity change, positive = activation” value read?
A: inactive: -0.567%

Q: With O=C(CSc1ccccc1)N1CCc2ccccc21 as the compound, how does the Potency read?
A: inconclusive: 16.4 µM [activator, partial curve]

Q: For CCOc1ccc2nc(NC(=O)CSc3cn[nH]n3)sc2c1, which Potency is on record?
A: active: 4.61 µM

Q: Which Potency does the source give for COc1cc(C(=O)Nc2ccc3c(c2)Cc2cc(NC(=O)c4cc(OC)c(OC)c(OC)c4)ccc2-3)cc(OC)c1OC here?
A: inconclusive: 11.6 µM [activator, partial curve, poor fit]

Q: Which Potency does the source give for C=CC(=O)OCCOCCOCCOCCOC(=O)C=C here?
A: inconclusive: 18.3 µM [activator, partial curve, poor fit]

Q: Which Potency does the source give for CCN(CC)S(=O)(=O)c1cccc(C(=O)Nc2ccc(S(=O)(=O)NC3=NCCCCC3)cc2)c1 here?
A: inconclusive: 29.1 µM [activator, single point]

Q: Which “activity change, positive = activation” value does the source give for Cc1nc2ccc(NC(=O)c3cccnc3)cc2s1 here?
A: inactive: 7.78%

Q: For CC(C)CC(=O)Nc1ccc(-c2cn3cccnc3n2)cc1, which Potency is on record?
A: inconclusive: 20.6 µM [activator, partial curve]

Q: Which “activity change, positive = activation” value does the source give for CCN1CCN(CC(=O)Nc2nc3ccc(OC)cc3s2)CC1 here?
A: inactive: 0.195%

Q: Which Potency does the source give for CC(=O)Nc1ccc(NS(=O)(=O)c2cc(-c3n[nH]c(=O)c4ccccc34)ccc2C)cc1 here?
A: inconclusive: 23.1 µM [activator, partial curve, poor fit]

Q: Which Potency does the source give for O=C(NC(=S)Nc1ccccc1N1CCCCC1)c1ccc(F)cc1 here?
A: inconclusive: 1.03 µM [activator, single point]

Q: For COCC1CCN(C(=O)c2ccc(OC3CCN(Cc4ccccn4)CC3)cc2)C1 (centres undefined), which Potency is on record?
A: inconclusive: 10.3 µM [activator, partial curve, poor fit]

Q: For Cc1ccc2nc(-c3ccc(NC(=O)COC(=O)c4ccc([N+](=O)[O-])o4)cc3)sc2c1, which Potency is on record?
A: active: 1.3 µM

Q: For Fc1cccc(/C=N/Nc2nccnc2Cl)c1, which Potency is on record?
A: inconclusive: 7.3 µM [activator, partial curve]

Q: For CCOc1ccc(N2CC(C(=O)Nc3ccncc3)CC2=O)cc1 (centres undefined), which Potency is on record?
A: inconclusive: 4.61 µM [activator, partial curve, poor fit]

Q: Which Potency does the source give for c1ccc(-c2noc(CC3CCCCC3)n2)cc1 here?
A: inconclusive: 16.4 µM [activator, single point]

Q: Which Potency does the source give for COc1ccc(C(=O)COC(=O)CCC(=O)Nc2ccc(C(C)=O)cc2)cc1 here?
A: inconclusive: 32.6 µM [activator, partial curve, poor fit]

Q: Which “activity change, positive = activation” value does the source give for Cc1ccc(CNC(=O)Cn2cc(C(F)(F)F)ccc2=O)cc1 here?
A: inactive: -1.75%

Q: For CC(C)c1cc(C(=O)NCCc2ccccc2)no1, which Potency is on record?
A: inconclusive: 2.91 µM [activator, partial curve, poor fit]

Q: With COC(=O)c1ccccc1NC(=O)c1ccc(-c2ccccc2F)o1 as the compound, how does the Potency read?
A: inconclusive: 2.59 µM [activator, partial curve, poor fit]

Q: With CCOC(=O)C1CCN(S(=O)(=O)c2cccc(-c3cn4cccnc4n3)c2)CC1 as the compound, how does the “activity change, positive = activation” value read?
A: inactive: 1.97%

Q: Which “activity change, positive = activation” value does the source give for Cc1ccc2c(c1)c1c(n2C)C(C(N)=O)CCC1 (centres undefined) here?
A: inactive: 2.89%

Q: With O=C(NCc1cccnc1)C(=O)Nc1nc2ccccc2s1 as the compound, how does the Potency read?
A: inconclusive: 18.3 µM [activator, single point]

Q: With COc1cc2cc(-c3ccc(O)cc3O)nc(C)c2cc1OC as the compound, how does the Potency read?
A: inconclusive: 5.8 µM [activator, full curve]

Q: For Cc1occc1C(=O)Nc1cccc(C(=O)O)c1, which Potency is on record?
A: inconclusive: 13 µM [activator, partial curve, poor fit]

Q: Which “activity change, positive = activation” value does the source give for CCCCCOCC(O)CCC(=O)NN (centres undefined) here?
A: inactive: -0.636%

Q: With COc1ccccc1/C=N/NC(=Nc1ccc(C)cc1)c1nc2ccccc2s1 as the compound, how does the Potency read?
A: inconclusive: 16.4 µM [activator, partial curve]

Q: Which Potency does the source give for CCC(=O)Nc1cccc(-c2nnc(SCC(=O)c3ccccc3)n2C)c1 here?
A: inconclusive: 20.6 µM [activator, single point]

Q: Which Potency does the source give for CCC1CCCCN1C(=O)CCS(=O)(=O)c1ccccc1 (centres undefined) here?
A: inconclusive: 16.4 µM [activator, partial curve]

Q: Which Potency does the source give for N#Cc1ccccc1OCC(=O)NC(=O)NCc1ccco1 here?
A: inconclusive: 13 µM [activator, partial curve]

Q: Which Potency does the source give for COC(=O)c1cc(C#N)c(SCc2ccccc2)nc1C here?
A: inconclusive: 18.4 µM [activator, single point]

Q: With CN1CCN(c2ncnc3c2cnn3-c2ccc(Cl)cc2)CC1 as the compound, how does the Potency read?
A: inconclusive: 1.3 µM [activator, partial curve]

Q: Which Potency does the source give for O=c1c(Cl)c(N2CCCCC2)cnn1-c1nc2ccccc2[nH]1 here?
A: inconclusive: 0.092 µM [activator, full curve, poor fit]

Q: For CSc1ccccc1OCc1cc(C(=O)N(C)Cc2nonc2C)no1, which Potency is on record?
A: inconclusive: 3.66 µM [activator, full curve]

Q: For CCCn1c(C)cc(C(=O)CSc2nc3ccccc3c(=O)n2Cc2ccco2)c1C, which Potency is on record?
A: inconclusive: 3.26 µM [activator, full curve]

Q: Which Potency does the source give for O=c1c(-c2ccc3c(c2)OCCO3)coc2c(CN3CCOCC3)c(O)ccc12 here?
A: inconclusive: 14.6 µM [activator, partial curve, poor fit]

Q: Which Potency does the source give for CCS(=O)(=O)N1Cc2ccccc2CC1C(=O)Nc1nc2ccccc2[nH]1 (centres undefined) here?
A: inconclusive: 8.2 µM [activator, partial curve]

Q: With CC(Oc1cccc(Cl)c1)C(=O)Nc1ccc(S(=O)(=O)N(C)C2CCN(C)CC2)cc1 (centres undefined) as the compound, how does the “activity change, positive = activation” value read?
A: inactive: -0.399%

Q: For CCOC(=O)c1ccc(N(C(=O)CNC(=O)c2ccco2)C(C(=O)NCC2CCCO2)c2ccc(OC)c(OC)c2)cc1 (centres undefined), which “activity change, positive = activation” value is on record?
A: inactive: 5.37%

Q: Which “activity change, positive = activation” value does the source give for S=C(Nc1ccc(Br)cc1)N1CCCC1 here?
A: inactive: 12.2%

Q: Which “activity change, positive = activation” value does the source give for O=S(=O)(c1ccc(-n2cnnn2)cc1)N1CCNCC1 here?
A: inactive: 0.384%

Q: Which Potency does the source give for CCNC(=O)Nc1nc2ccccc2s1 here?
A: inconclusive: 9.2 µM [activator, partial curve]

Q: With O=C(CSc1ncnc2ccccc12)N1CCCC1 as the compound, how does the Potency read?
A: inconclusive: 18.4 µM [activator, single point]
